About 2,300 (1%) of roughly 220,000 compounds were called active. Inconclusive results, whose numbers are uncertain, are shown with a selection of clear calls. Calls follow the shape of the dose curve; as a rule, active = well fitted inhibition curve with a large enough effect; inconclusive = small, poorly fitted or top-dose-only effect, or effect the other way; inactive = no such curve, though single readings can be large or run the other way. Potencies of inconclusive entries are left out as doubtful fits.
What follows are compounds tested against Neuropeptide S receptor (Homo sapiens) (UniProt Q6W5P4) (assay: qHTS Assay for Antagonists of the Neuropeptide S Receptor: cAMP Signal Transduction). Details: CHO-NPSR cells, cAMP TR-FRET, antagonist mode; series mostly up to 38.3 µM.
Also: nearly all actives have a fitted effect of over 50% in size.
Potency is read from the fitted curve at half-maximal effect; tags tell the direction and shape of the fitted curve.

Chain of UniProt Q6W5P4 (Q6W5P4 whole entry, looked up): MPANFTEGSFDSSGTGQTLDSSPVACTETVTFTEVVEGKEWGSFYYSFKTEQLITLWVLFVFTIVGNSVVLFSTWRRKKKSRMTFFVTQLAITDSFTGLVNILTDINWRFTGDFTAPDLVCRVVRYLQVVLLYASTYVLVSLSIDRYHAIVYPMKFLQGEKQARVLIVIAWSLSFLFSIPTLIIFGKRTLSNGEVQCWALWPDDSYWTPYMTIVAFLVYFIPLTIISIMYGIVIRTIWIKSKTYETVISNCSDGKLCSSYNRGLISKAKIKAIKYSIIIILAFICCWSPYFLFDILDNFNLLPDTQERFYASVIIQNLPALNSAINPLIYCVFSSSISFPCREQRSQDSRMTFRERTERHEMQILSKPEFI

| SMILES | Potency |
| --- | --- |
| O=c1c(-c2ccc(Cl)cc2)[n+]([O-])c2ccccc2n1OCc1ccccn1 | inconclusive [inhibitor, single point] |
| CCOc1ccccc1/C=C(/NC(=O)c1ccccc1)C(=O)N(CC)CC | inactive |
| CCc1nc2ccccc2nc1N1CCN(S(=O)(=O)c2ccc(Cl)cc2)CC1 | inconclusive [activator, partial curve] |
| CCOC(=O)c1c(C)sc2c1N(C(C)=O)c1cc(Cl)ccc1S2 | inconclusive [inhibitor, partial curve] |
| CC1CCC/C(=C\Nc2ccc3c(c2)OCO3)C1=O (stereo unspecified) | inactive |
| COc1cc(CN2CCc3ccccc3C2)ccc1O | inconclusive [activator, single point] |
| COc1ccc(C(=O)Nc2ccc(Cl)cc2C(=O)N2CCCC(C)C2)cc1 (stereo unspecified) | inconclusive [inhibitor, single point] |
| Clc1nssc1=Nc1ccccc1 | inactive |
| COc1cc(CNC2CCCCC2OC)cc(OC)c1OC (stereo unspecified) | inactive |
| CSc1nc2ccc3nc(NC(=O)c4ccccc4)sc3c2s1 | inconclusive [inhibitor, partial curve] |
| CCn1nnnc1SCC(=O)Nc1nc(-c2cccs2)cs1 | inconclusive [inhibitor, single point] |
| Cc1ccc(S(=O)(=O)N2Cc3ccccc3CC2C(=O)Nc2cc(C)on2)cc1 (stereo unspecified) | inconclusive [inhibitor, single point] |
| O=C1/C(=N\S(=O)(=O)c2cccs2)C([n+]2ccc(CCCc3ccccc3)cc2)=C([O-])c2ccccc21 | inconclusive [activator, single point] |
| COc1ccccc1CNn1c(-c2cccc(C)c2)nc2ccccc2c1=O | inconclusive [inhibitor, partial curve] |
| CC(=O)c1cccc(NC(=S)NC(=O)c2ccccc2)c1 | inactive |
| COc1ccc(C(=O)/C=C/C(=O)N(CC(=O)NCCC(C)C)Cc2cccs2)c(O)c1 | inconclusive [activator, partial curve] |
| FC(F)(F)c1cccc(NC(=S)Nc2cccc(NC(=S)Nc3cccc(C(F)(F)F)c3)n2)c1 | inconclusive [activator, single point] |
| N#Cc1nc(Cc2ccccc2)oc1N1CCN(c2cccc(Cl)c2)CC1 | inconclusive [inhibitor, partial curve] |
| O=[N+]([O-])c1ccc(NNC(=S)Nc2ccccc2)cc1 | inconclusive [inhibitor, full curve, poor fit] |
| Nc1nc2c(s1)CCc1c-2cnn1-c1ccccc1 | inconclusive [inhibitor, partial curve] |
| CCCCN(CCCC)c1nc(-c2ccncc2)nc2ccccc12 | inconclusive [inhibitor, single point] |
| O=C(NCCN1CCCC1)c1ccc(Cn2c(=S)[nH]c3cc4c(cc3c2=O)OCO4)cc1 | inconclusive [inhibitor, single point] |
| C=CCn1c(Cc2ccccc2)n[nH]c1=S | inactive |
| O=C(NCc1ccccc1)c1cccc(COc2ccccc2Cl)c1 | inconclusive [inhibitor, single point] |

| SMILES | Potency |
| --- | --- |
| CC12CC(NC(=O)N1c1cccc(C(=O)Nc3ncn[nH]3)c1)c1ccccc1O2 (stereo unspecified) | inconclusive [inhibitor, single point] |
| COc1ccc(-n2c(=S)[nH]c3c(sc(=S)n3-c3ccccc3)c2=O)c(OC)c1 | inactive |
| O=C(COc1ccccc1Cl)Nc1nc(-c2cccs2)cs1 | inconclusive [inhibitor, single point] |
| CC12CC(NC(=O)N1CCc1ccccc1)c1ccccc1O2 (stereo unspecified) | inconclusive [inhibitor, single point] |
| Cc1ccc(NC(=O)COC(=O)/C=C/c2ccc(Br)o2)cc1S(=O)(=O)N(C)C | inactive |
| COc1ccc(-c2ccc(Nc3ccc(C(=O)N4CCOCC4)cc3)nn2)cc1OC | inactive |
| Cc1csc2nc3ccccc3c(=O)n12 | inactive |
| COC(=O)C1=C(C)N(c2ccccc2)/C(=C/c2ccco2)C1=O | inconclusive [inhibitor, single point] |
| CSC1=NC(C)(C)C=C(/C=C/c2ccc(Cl)cc2)N1 | inactive |
| O=C(Nc1nccs1)c1cc2sccc2n1Cc1ccc(Cl)cc1 | inconclusive [inhibitor, single point] |
| COc1cccc(/C=N/NC(N)=S)c1OCc1cccc(Cl)c1 | inconclusive [inhibitor, single point] |
| Cn1nc(-c2ccc(C(=O)O)cc2)c2ccccc2c1=O | inactive |
| Cc1cc(Cl)cc(Br)c1OCCCN1C(=O)NC(C)(C)C1=O | inactive |
| Cc1csc(SCCn2c(N3CCN(c4ccccc4)CC3)nc3c2c(=O)[nH]c(=O)n3C)n1 | inconclusive [inhibitor, full curve, poor fit] |
| CC1=CCC(Cc2nc3ccccc3o2)C1(C)C (stereo unspecified) | inconclusive [inhibitor, single point] |
| S=c1[nH]nc(-c2cc(-c3ccccc3)n[nH]2)n1/N=C/C(Br)=C/c1ccccc1 | inconclusive [activator, partial curve] |
| Cc1cccc(CSc2cccc3cccnc23)c1 | active: 3.16 µM |
| CN1CCN(CCCNC(=O)Cn2ncc3c4ccccc4n(C)c3c2=O)CC1 | inconclusive [inhibitor, single point] |
| Cc1cccc(NC(=O)CN2CCCN(S(=O)(=O)c3ccc(Br)s3)CC2)c1 | inconclusive [inhibitor, partial curve] |
| O=C(Nc1ccccc1C(=O)O)c1cc(S(=O)(=O)N2CCOCC2)cs1 | inactive |
| CCCc1cc2c(=O)c(-c3ccc4c(c3)OCCO4)c(C)oc2cc1OS(C)(=O)=O | inconclusive [inhibitor, partial curve] |
| CCOC(=O)CC1C(=O)NCCN1c1nc2ccc(C)cn2c(=O)c1/C=C1\SC(=S)N(C(C)CC)C1=O (stereo unspecified) | inconclusive [activator, partial curve] |
| Cc1cc(/C=C2\C(=N)N3C(SCc4ccccc4)=NSC3=NC2=O)c(C)n1Cc1ccccc1 | inconclusive [inhibitor, single point] |
| CCOc1ccc(NC(=NCc2ccc3c(c2)OCO3)SC2CC(=O)N(c3ccc(OCC)cc3)C2=O)cc1 (stereo unspecified) | inactive |

| SMILES | Potency |
| --- | --- |
| COc1ccccc1N/C(=N/S(=O)(=O)c1ccc(Cl)cc1)c1ccccc1 | inconclusive [inhibitor, single point] |
| COc1ccc(-c2[nH]ncc2-c2ccc3c(c2)OCCO3)c(O)c1 | inactive |
| CCOc1ccc(NC(=S)NC(=O)/C=C/c2ccc(Br)cc2)c([N+](=O)[O-])c1 | inconclusive [inhibitor, single point] |
| N#C/C(=N\Nc1cccc(C(F)(F)F)c1)C(=O)c1ccsc1 | inconclusive [activator, single point] |
| CCOc1ccc2nc(SCC(=O)NC(=O)NCc3ccco3)sc2c1 | inactive |
| COCCCNC(=O)c1ccc2c3c(onc13)-c1ccccc1C2=O | inconclusive [activator, partial curve] |
| CCCC1COC(Cn2cncn2)(c2ccc(C)cc2)O1 (stereo unspecified) | inconclusive [inhibitor, single point] |
| CCOC(=O)c1nnn(-c2nonc2-n2cccc2)c1CN1CCC(C(=O)OCC)CC1 | inconclusive [inhibitor, single point] |
| CC(=O)Nc1nc(-c2ccc(Cl)cc2)nc(C)c1C(C)=O | inconclusive [activator, single point] |
| COC(=O)CN1C(c2ccccc2)=Nc2ccc(Cl)cc2C1c1ccccc1 (stereo unspecified) | inconclusive [inhibitor, single point] |
| Cc1cc(-c2cc(-c3ccccc3)on2)nc(NC2CCCC2)n1 | inactive |
| Cc1cc(NC(=O)c2cc(C(C)C)on2)nn1Cc1ccc(Cl)cc1 | inconclusive [inhibitor, single point] |
| CCc1ccc(C(=O)NCC2COc3ccccc3O2)o1 (stereo unspecified) | inactive |
| CCOc1ccc2nc(NC(=O)C(NS(=O)(=O)c3cccc4nsnc34)C(C)C)sc2c1 (stereo unspecified) | inactive |
| COc1cccc(C2C(C(=O)c3cc4cccc(OC)c4o3)=C(O)C(=O)N2c2cc(C)on2)c1OC (stereo unspecified) | active: 6.31 µM |
| COc1ccc2c(C)cc(SCC(=O)Nc3ccc(Cl)cn3)nc2c1 | inconclusive [inhibitor, single point] |
| O=C(Nc1ccc(OC(F)(F)F)cc1)Nc1cccc([N+](=O)[O-])c1 | inconclusive [inhibitor, single point] |
| N=C1S/C(=C\c2ccco2)C(=O)N1c1ccc2c(c1)OCO2 | inactive |
| Cc1cn(S(=O)(=O)c2ccc(Br)c3ccccc23)cn1 | active: 1 µM |
| CCc1ccc(/C=C/C(=O)c2c(C)cc(C)[nH]c2=O)cc1 | inconclusive [activator, partial curve] |
| CCOC(=O)c1cc([N+](=O)[O-])c([N+](=O)[O-])cc1NC(C)=O | active: 10 µM |
| COc1ccc2[nH]c(=O)c(C(c3nnnn3C(C)(C)C)N(Cc3ccco3)CC3CCCO3)cc2c1 (stereo unspecified) | inconclusive [inhibitor, partial curve] |
| COc1ccc(NC(=O)c2nc[nH]c2C(=O)N2CCC(C)CC2)cc1 | inactive |
